These are yes or no findings as the source states them, for the method shown. For some assays here: In cells and extracts the contact can be indirect. Some results given as binding are weak or reduced against the parent protein; the word gives no strength. Tags and fused reporters may be left off the sequences shown.
B1: Cdc24_(428-854)-CRU (domain or fragment, UniProt P11433 428-854)
chain: SSDDNNTKELEAALDISKNIARSINENQRRTENHQVVKKLYGRVVNWKGYRISKFGELLYFDKVFISTTNSSSEPEREFEVYLFEKIIILFSEVVTKKSASSLILKKKSSTSASISASNITDNNGSPHHSYHKRHSNSSSSNNIHLSSSSAAAIIHSSTNSSDNNSNNSSSSSLFKLSANEPKLDLRGRIMIMNLNQIIPQNNRSLNITWESIKEQGNFLLKFKNEETRDNWSSCLQQLIHDLKNEQFKARHHSSTSTTSSTAKSSSMMSPTTTMNTPNHHNSRQTHDSMASFSSSHMKRVSDVLPKRRTTSSSFESEIKSISENFKNSIPESSILFRISYNNNSNNTSSSEIFTLLVEKVWNFDDLIMAINSKISNTHNNNISPITKIKYQDEDGDFVVLGSDEDWNVAKEMLAENNEKFLNIRLY
B2: Cdc24_(428-854)-CRU clone Round 4 M2 (domain or fragment, UniProt P11433 428-854)
chain: SSDDNNTKELEAALDISKNIARSINENQRRTENHQVVKKLYGRVVNWKGYRISKFGELLYFDKVFISTTNSSSEPEREFEVYLFEKIIILFSEVVTKKSASSLILKKKSSTSASISASNITDNNGSPHHSYHKRHSNSSSSNNIHLSSSSAAAIIHSSTNSSDNNSNNSSSSSLFKLSANEPKLDLRGRIMIMNLNQIIPQNNRSLNITWESIKEQGNFLLKFKNEETRDNWSSCLQQLIHDLKNEQFKARHHSSTSTTSSTAKSSSMMSPTTTMNTPNHHNSRQTHDSMASFSSSHMKRVSDVLPKRRTTSSSFESEIKSISENFKNSIPESSILFRISYNNNSNNTSSSEIFTLLVEKIWNFDDLIMAINSKISNTHNNNISPITKIKYQDEDGDFVVLGSDEDWNVAKGMLAENNERFLNIRLY
B3: Cdc24_(428-854)-CRU clone Round 4 M3 (domain or fragment, UniProt P11433 428-854)
chain: SSDDNNTKELEAALDISKNIARSINENQRRTENHQVVKKLYGRVVNWKGYRISKFGELLYFDKVFISTTNSSSEPEREFEVYLFEKIIILFSEVVTKKSASSLILKKKSSTSASISASNITDNNGSPHHSYHKRHSNSSSSNNIHLSSSSAAAIIHSSTNSSDNNSNNSSSSSLFKLSANEPKLDLRGRIMIMNLNQIIPQNNRSLNITWESIKEQGNFLLKFKNEETRDNWSSCLQQLIHDLKNEQFKARHHSSTSTTSSTAKSSSMMSPTTAMNTPNHHNSRQTHDSMASFSSSHMKRVSDVLPKRRTTSSSFESEIKSISENFKNSIPESSILFRISYNNNSNNTSSSEIFTLLVEKVWHFDDLIMAINSKIPNTHNNSISPITKIKYQDEDGDFVVLGSDEDWNVAKEMLAENNEKFLNIRLY
B4: Cdc24_(428-854)-CRU clone Round 4 M5 (domain or fragment, UniProt P11433 428-854)
chain: SSDDNNTKELEAALDISKNIARSINENQRRTENHQVVKKLYGRVVNWKGYRISKFGELLYFDKVFISTTNSSSEPEREFEVYLFEKIIILFSEVVTKKSASSLILKKKSSTSASISASNITDNNGSPHHSYHKRHSNSSSSNNIHLSSSSAAAIIHSSTNSSDNNSNNSSSSSLFKLSANEPKLDLRGRIMIMNLNQIIPQNNRSLNITWESIKEQGNFLLKFKNEETRDNWSSCLQQLIHDLKNEQFKARHHSSTSTTSSTAKSSSMMSPTTTMNTSNHHNSRQTHDSMASFSSSHMKRVSNVLPKRRTTSSSFEGEIKSISENFKNSIPESSILFRISCNNNSNNTSSSEIFTLLVEKVWNTDDLIMAINSKISNTHNNNISPITKIKYQDEDGDFVVLGSDEDWNVAKEMLAENNETFLNIRLY
B5: Cdc24_(428-854)-CRU clone Round 4 M4 (domain or fragment, UniProt P11433 428-854)
chain: SSDDNNTKELEAALDISKNIARSINENQRRTENHQVVKKLYGRVVNWKGYRISKFGELLYFDKVFISTTNSSSEPEREFEVYLFEKIIILFSEVVTKKSASSLILKKKSSTSASISASNITDNNGSPHHSYHKRHSNSSSSNNIHLSSSSAAAIIHSSTNSSDNNSNNSSSSSLFKLSANEPKLDLRGRIMIMNLNQIIPQNNRSLNITWESIKEQGNFLLKFKNEETRDNWSSCLQQLIHDLKNEQFKARHHSSTSTTSSTAKSSSMMSPTTTMNTPNHHNSRQTHDSMASFSSSHMKRVSDVLPKRRTTSSSFESEIKSISENFKNSIPESSILFRISYNNNSNNTSSSEIFTLLVEKVWNFDDLIMAINSKISNTHNNNISPITKIKYQDEDGDFVVLGRDEDRNVAKEMLAENNEKFLNIRLY
B6: Cdc24_(428-854)-CRU clone Round 4 M6 (domain or fragment, UniProt P11433 428-854)
chain: SSDDNNTKELEAALDISKNIARSINENQRRTENHQVVKKLYGRVVNWKGYRISKFGELLYFDKVFISTTNSSSEPEREFEVYLFEKIIILFSEVVTKKSASSLILKKKSSTSASISASNITDNNGSPHHSYHKRHSNSSSSNNIHLSSSSAAAIIHSSTNSSDNNSNNSSSSSLFKLSANEPKLDLRGRIMIMNLNQIIPQNNRSLNITWESIKEQGNFLLKFKNEETRDNWSSCLQQLIHDLKNEQFKARHHSSTSTTSSTAKSSSMMSPTTTMNTPNHHNSRQTHDSMASFSSSHMKRVSDVLPKWRTTSSSFESEIRSISENFKNSIPESSILFRISYNNNSNNTSSSEIFTLLVEKVWNFDDLRMAINSKIPNTHNNNISPITKIKDQDEDGDSVVLGSDEDWNVANEMLAENNEKFLNIRLY
B7: Cdc24_(428-854)-CRU clone Round 5 M1 (domain or fragment, UniProt P11433 428-854)
chain: SSDDNNTKELEAALDISKNIARSINENQRRTENHQVVKKLYGRVVNWKGYRISKFGELLYFDKVFISTTNSSSEPEREFEVYLFEKIIILFSEVVTKKSASSLILKKKSSTSASISASNITDNNGSPHHSYHKRHSNSSSSNNIHLSSSSAAAIIHSSTNSSDNNSNNSSSSSLFKLSANEPKLDLRGRIMIMNLNQIIPQNNRSLNITWESIKEQGNFLLKFKNEETRDNWSSCLQQLIHDLKNEQFKARHHSSTSTTSSTAKSSSMMSPTTTMNTPNHHNSRQTHDSMASFSSSHMKRVSDVLPKRRTTSSSSESEIKSISGNFKNPIPESSILFRISYNNNSNNTSSSEIFTLLVEKVWNLDDLIMAINSKISNTHNNNISPITKIKYQDEDGDFVVLGSDEDRNAAKETWAENNEKFLNIRLY
B8: PB_(Cdc24)(D833G) (domain or fragment, UniProt P11433 668-854)
chain: HDLKNEQFKARHHSSTSTTSSTAKSSSMMSPTTTMNTPNHHNSRQTHDSMASFSSSHMKRVSDVLPKRRTTSSSFESEIKSISENFKNSIPESSILFRISYNNNSNNTSSSEIFTLLVEKVWNFDDLIMAINSKISNTHNNNISPITKIKYQDEDGDFVVLGSDEGWNVAKEMLAENNEKFLNIRLY

target: T1, Nub-Bem1 (Saccharomyces cerevisiae) (UniProt P29366); assay: split reporter; manual split-ubiquitin assay in yeast JD53: Nub fusion and Cub-RUra3 (CRU) fusion coexpressed, serial dilutions spotted on medium lacking histidine and uracil with 50 µM CuSO4 and various Met concentrations (0 or 20 µM Met in Figure 3A), 2 d at 30°; interaction stops growth on SD ura-
T1 sequence: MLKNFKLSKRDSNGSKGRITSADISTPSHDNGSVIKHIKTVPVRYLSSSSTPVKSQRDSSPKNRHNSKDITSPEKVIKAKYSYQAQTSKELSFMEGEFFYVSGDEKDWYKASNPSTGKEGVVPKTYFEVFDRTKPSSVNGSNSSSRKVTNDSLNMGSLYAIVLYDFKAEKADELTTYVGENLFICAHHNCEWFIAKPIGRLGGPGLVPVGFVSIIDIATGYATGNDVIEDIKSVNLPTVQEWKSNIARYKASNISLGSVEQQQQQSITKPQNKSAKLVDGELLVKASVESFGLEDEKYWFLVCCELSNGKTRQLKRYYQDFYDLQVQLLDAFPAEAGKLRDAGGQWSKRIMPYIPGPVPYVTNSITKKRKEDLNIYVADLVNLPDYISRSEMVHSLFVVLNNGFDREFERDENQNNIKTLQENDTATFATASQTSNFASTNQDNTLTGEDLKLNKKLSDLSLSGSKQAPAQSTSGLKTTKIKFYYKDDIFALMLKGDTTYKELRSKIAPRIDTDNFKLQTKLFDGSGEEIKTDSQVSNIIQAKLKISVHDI

**Q.** Which binding does the source give for B1 here?
**A.** binds

**Q.** With B2 as the binder, how does the binding read?
**A.** binds

**Q.** B3 was tested. Which binding did it give?
**A.** binds

**Q.** With B4 as the binder, how does the binding read?
**A.** binds

**Q.** B5 was tested. Which binding did it give?
**A.** no binding

**Q.** Which binding does the source give for B6 here?
**A.** no binding

**Q.** With B7 as the binder, how does the binding read?
**A.** no binding

target: T2, PB_(Bem1)-SNAP (Saccharomyces cerevisiae) (UniProt P29366); assay: SPR; Biacore X100; PB_(Bem1)-SNAP labelled with BG-Biotin and captured on a CM5 chip coated with anti-biotin antibody; PB_(Cdc24) as analyte; HBSEP (10 mM HEPES, 150 mM NaCl, 3 mM EDTA, 0.05% Tween 20, pH 7.4); both purified
T2 sequence (chain, BG-Biotin covalently on the SNAP tag): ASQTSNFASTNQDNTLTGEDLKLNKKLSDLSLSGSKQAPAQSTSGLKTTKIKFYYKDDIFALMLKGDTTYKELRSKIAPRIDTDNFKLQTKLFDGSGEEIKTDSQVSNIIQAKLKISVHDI

**Q.** With B8 as the binder, how does the binding read?
**A.** no binding (tested: KD > 3.2 μM)
